Among the data in PubChem BioAssay AID1346428 (National Center for Advancing Translational Sciences (NCATS), 2018) are activation values, retold here.

SMILES strings stand for the structures. About 1,200 (2.5%) of roughly 48,000 compounds were called active. Not shown: some 2% with an inconclusive outcome.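 Rule for the calls: active = activation of at least 60% and not above a set upper limit (about 1 call in 100 departs from these limits); inconclusive = activation of 40% to 60%, or above that upper limit; inactive = activation under 40%.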 The list shows a part of the results.

Chain of UniProt O75388 (O75388 whole entry, looked up): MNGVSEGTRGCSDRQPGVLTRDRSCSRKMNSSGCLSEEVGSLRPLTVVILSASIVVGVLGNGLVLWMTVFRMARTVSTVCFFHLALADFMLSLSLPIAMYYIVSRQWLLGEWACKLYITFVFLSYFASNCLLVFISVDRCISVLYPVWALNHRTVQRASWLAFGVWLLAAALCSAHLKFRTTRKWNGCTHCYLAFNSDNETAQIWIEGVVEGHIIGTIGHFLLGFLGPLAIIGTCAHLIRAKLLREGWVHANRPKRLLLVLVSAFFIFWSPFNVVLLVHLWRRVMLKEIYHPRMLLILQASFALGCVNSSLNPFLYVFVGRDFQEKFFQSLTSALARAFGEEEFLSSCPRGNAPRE

In this test the target is Probable G-protein coupled receptor 32 (Homo sapiens) (UniProt O75388). Briefly: qHTS for Agonists of Human Resolvin D1 Receptor DRV1. Conditions: CHO-K1 GPR32 beta-arrestin PathHunter luminescence, 90 min; at 76.9 µM; hits give high values; zero percent set by DMSO-only wells. From the text:
Endogenous resolution of inflammation is known to be transduced through various GPCRs and their natural mediators of lipid nature. Resolvin D1 (RvD1) is one of the active players in resolution of acute inflammation through regulation of anti-inflammatory pathways; it is known to enhance phagocytosis of human macrophages, limits neutrophils infiltration, etc. […] The search for GPR32-activating small molecules with anti-inflammatory effects similar to its natural omega-3 derivative ligand in order to use them as research tools for further studies of inflammation and its resolution was the goal of this screening project. For primary screening assay, we used CHO-K1 GPR32 beta-arrestin cell line (DiscoveRx, #93-0321C2A) and the PathHunter(R) beta-Arrestin Assay (DiscoveRx) which measures recruitment of beta-arrestin to the GPR32 and generates chemiluminescent signal. These engineered cells stably transfected with GPR32 co-express GPR32-fused small 42-amino acid fragment of beta-Gal called ProLinktrade mark, and […] -tagged beta-Arrestin fusion protein. When GPR32 is activated by a ligand, it stimulates binding of beta -Arrestin to ProLink-tagged GPR32, and two parts of beta-Gal complement forming a functional enzyme. Upon substrate (PathHunter(R) Detection reagent) addition, beta-Gal hydrolyzes it and generates a chemiluminescent signal.
The cells were thawed and plated in thawing media containing F-12 HAM (Invitrogen, #11765-054), 10% FBS (Invitrogen, #10082), 1x Glutamine, and 1x Pen/Strep onto the 175-mm flask for 24 hours. Then, thawing media was replaced with Growth media which contains 800microg/mL Geneticin (Invitrogen, #10131) and 300microg/mL Hygromycin B (Invitrogen, #10687) in addition to described above. For the assay, the cells were harvested at ~80% confluent stage with Cell Dissociation buffer (Gibco, #13151), and seeded at 2,500 cells/ 3microL/well in assay media (PathHunter(R) Cell Plating Reagent, DiscoverX, #93-0563R1B) using MultiDrop Combi dispenser (Thermo Scientific, Logan, UT) onto white solid bottom tissue culture-treated 1536-well plates (Greiner # 789173-F) and allowed to attach overnight at 37 degrees C, 95% humidity, 5% CO2, . Next, 23nL/well of compound solutions in DMSO were added with a Pin Tool (Kalypsis, San Diego, CA) to the assay plates. As the basal control (EC0), 23 nL/well of DMSO was used on each plate. The cells were incubated in the presence of compounds or DMSO for 90 minutes at 37 degrees C, 5% CO2. Subsequently, 1.5microL/well of PathHunter(R) Detection Reagent prepared per the manufacturer's instructions was added to the assay plates with BioRAPTR FRDtrade mark dispenser (Beckman Coulter, San Francisco, CA) and incubated for 1 hour at ambient temperature prior to the measurement of the luminescent signal on ViewLux(R) uHTS Microplate Imager (Perkin Elmer, Waltham, MA).
Regarding `Cc1cc(Nc2cccc(Br)c2)n2c(nc3ccccc32)c1C#N`, the activation was inactive: 19.4%.
Take `Cc1ccc(N2CCN(C(=O)c3cn(C)c4ccc(S(=O)(=O)N5CCCC5)cc4c3=O)CC2C)cc1` (stereo unspecified): the activation was inactive: -16.2%.
The value for `CCOc1ccc(NC(=O)CN2C(=O)c3ccccc3Sc3ccc(C(=O)OC)cc32)cc1` was inactive: -3.35%.
Take `COc1cc(NC(=O)CSc2nc(-c3ccccc3)no2)cc(OC)c1`: the activation is inactive: 14.6%.
The result for `Cc1cc(C)cc(-n2c(SCC(=O)NCc3ccc(F)cc3)nc3c([nH]c4ccccc43)c2=O)c1` reads inactive: 18.5%; that for `Cc1ccc2c(c1)c(=O)c1ccccc1n2CCCC(=O)Nc1ccc(Cl)c(Cl)c1`, inactive: -1.01%; that for `Cc1cccc(C)c1NC(=O)C(=O)NCC(c1cccnc1)N1CCc2ccccc21` (stereo unspecified), inactive: -23%.
Take `COC(=O)c1sc(-c2ccccc2)cc1NC(=O)c1cccc(Cl)c1`: the activation was inactive: 4.12%.
As to `COc1cccc(NC(=O)CN2C(=O)CC(c3ccco3)Sc3ccccc32)c1` (stereo unspecified), the activation was inactive: -6.18%.
Turning to `CN(C)c1ccc(C(=C2C=CC(=[N+](C)C)C=C2)c2ccc(N(C)C)cc2)cc1`, the activation was inactive: -78.5%.
The value for `COc1cc(NC(=O)c2cc3c(=O)n(Cc4ccco4)ccc3nc2C)cc(OC)c1OC` was inactive: -4.77%; that for `O=C(C1CCC(Cn2c(=O)c3sccc3n(Cc3ccccc3F)c2=O)CC1)N1CCOCC1` (stereo unspecified) was inactive: -17.1%.
The result for `COc1ccccc1C(=O)Nc1ccc(-c2cc(C(F)(F)F)nn2-c2ccccc2)cc1` reads inactive: -28.6%; that for `CCOC(=O)c1c(C)[nH]c(C)c1S(=O)(=O)N1CCCC(C(=O)N2CCN(c3cccc(Cl)c3)CC2)C1` (stereo unspecified), inactive: 8.51%; that for `O=C(NCc1ccccc1Cl)c1ccc2c(c1)NC(=O)C(CS(=O)(=O)Cc1ccc(Cl)cc1)N2` (stereo unspecified), inactive: -23.5%.
The result for `O=C(Nc1ccc(F)c(F)c1)C(c1ccccc1)N1Cc2ccccc2C1=O` (stereo unspecified) reads inactive: -21.2%; that for `Cc1ccc2nc(-c3ccc(C)s3)c(Nc3ccc4c(c3)OCCO4)n2c1`, inactive: -44.4%; that for `COc1ccc(CCNC(=O)CN(c2ccccc2)S(=O)(=O)N(C)C)cc1`, inactive: -1.96%.
Regarding `COc1ccccc1-c1nn(CCC(=O)Nc2ccccc2)c2nc(C)cc(C)c12`, the activation was inactive: 1.69%.
For `CCN(CC)CCNC(=O)c1cc2c(-c3cccc(OC)c3)nn(C)c2s1`, the activation was inactive: 6.33%.
The result for `Cc1cccc2sc(N(Cc3cccnc3)C(=O)c3ccco3)nc12` reads inactive: -27%; that for `COc1ccccc1OCC(=O)NCCS(=O)(=O)N1CCN(c2ccccc2OC)CC1`, inactive: -12.5%.
With `Cc1ccc2[nH]cc(C(c3ccccc3)c3ccc(Cl)s3)c2c1` (stereo unspecified), the activation was inactive: 30.9%.
Take `Cc1nn(C(C)C(=O)NCc2ccco2)c(=O)c2nn(-c3ccccc3)c(C)c12` (stereo unspecified): the activation was inactive: 1.11%.
The value for `Cc1ccc(C(=O)N2CCN(CCc3ccncc3)CC2)cc1` was inactive: 0.356%; that for `CCOc1ccccc1NC(=O)Cn1c(=O)n(CCCC(=O)NCc2ccc(C)cc2)c(=O)c2ccccc21` was inactive: -0.431%; that for `CN1C(=O)c2ccccc2Sc2ccc(NC(=O)N3CCN(c4ccc(F)cc4)CC3)cc21` was inactive: -3.89%.
With `COc1ccc(-c2nc(S(=O)(=O)c3ccccc3)c(N3CCC(C)CC3)o2)cc1`, the activation was inactive: -7.73%.
The result for `COc1ccc(NC(=O)C(NS(=O)(=O)c2cccc3nsnc23)C(C)C)cc1OC` (stereo unspecified) reads inactive: -19.8%; that for `COc1ccc(S(=O)(=O)Nc2cccc(-c3ccc(N4CCCCC4)nn3)c2)cc1F`, inactive: -6.46%; that for `Oc1ccc(NCc2ccccc2OCc2ccccc2)cc1`, inactive: -84.8%.
The value for `CCOc1ccc(CNC(=O)c2cc3cc(S(=O)(=O)N4CCCCC4)ccc3n2C)cc1` was inactive: -3.21%; that for `Cc1ccc(Cl)cc1-n1c(SCC(=O)NCc2ccccc2)nc2n[nH]c(C)c2c1=N` was inactive: 9.34%; that for `CSc1ccc(CCNC(=O)CN2C(=O)COc3ccc(S(=O)(=O)N4CCCCCC4)cc32)cc1` was inactive: 5.66%.
The value for `CCOC(=O)c1cccc(NC(=O)c2cc(C)nc3c2c(C)nn3-c2ccc(C)cc2)c1` was inactive: -13.3%; that for `COc1cc(Nc2nc3ccc(Cl)cc3nc2-n2nc(C)cc2C)cc(OC)c1` was inactive: -18.1%; that for `Cc1ccc(Cl)cc1NC(=O)CCn1cnc2ccccc2c1=O` was inactive: 8.08%.
Consider `CCOC(=O)c1ccc(NC(=O)C2=C(C)C(=O)OC23CCN(C(C)=O)CC3)cc1`, for which the activation is inactive: -9.74%.
The result for `O=C(CN1C(=O)COc2ccc(S(=O)(=O)NC3CCCC3)cc21)NCc1ccccc1Cl` reads inactive: -9.62%.
On to `Cn1ncc2c(Nc3cccc(C#N)c3)ncnc21`, for which the activation was inactive: -7.62%.
The result for `CCc1cccc(C)c1NC(=O)CSc1n[nH]c(-c2ccccc2)n1` reads inactive: -1.49%.
